# Assay results from the supplement of paper PMC8728848.
# Some of the results follow.
# B1: Neuropilin-1 (Rattus norvegicus), Q9QWJ9 (protein)
# chain: MERGLPLLCATLALALALAGAFRSDKCGGTIKIENPGYLTSPGYPHSYHPSEKCEWLIQAPEPYQRIMINFNPHFDLEDRDCKYDYVEVIDGENEGGRLWGKFCGKIAPSPVVSSGPFLFIKFVSDYETHGAGFSIRYEIFKRGPECSQNYTAPTGVIKSPGFPEKYPNSLECTYIIFAPKMSEIILEFESFDLEQDSNPPGGVFCRYDRLEIWDGFPEVGPHIGRYCGQKTPGRIRSSSGILSMVFYTDSAIAKEGFSANYSVLQSSISEDFKCMEALGMESGEIHSDQITASSQYGTNWSVERSRLNYPENGWTPGEDSYREWIQVDLGLLRFVTAVGTQGAISKETKKKYYVKTYRVDISSNGEDWITLKEGNKAIIFQGNTNPTDVVFGVFPKPLITRFVRIKPASWETGISMRFEVYGCKITDYPCSGMLGMVSGLISDSQITASNQGDRNWMPENIRLVTSRTGWALPPSPHPYINEWLQVDLGDEKIVRGVIIQGGKHRENKVFMRKFKIAYSNNGSDWKMIMDDSKRKAKSFEGNNNYDTPELRAFTPLSTRFIRIYPERATHSGLGLRMELLGCEVEVPTAGPTTPNGNPVDECDDDQANCHSGTGDDFQLTGGTTVLATEKPTIIDSTIQSEFPTYGFNCEFGWGSHKTFCHWEHDSHAQLRWRVLTSKTGPIQDHTGDGNFIYSQADENQKGKVARLVSPVVYSQSSAHCMTFWYHMSGSHVGTLRVKLHYQKPEEYDQLVWMVVGHQGDHWKEGRVLLHKSLKLYQVIFEGEIGKGNLGGIAVDDISINNHIPQEDCAKPTDLDKKNTEIKIDETGSTPGYEEGKGDKNISRKPGNVLKTLDPILITIIAMSALGVLLGAVCGVVLYCACWHNGMSERNLSALENYNFELVDGVKLKKDKLNPQSNYSEA
# What was measured:
# Assay in all cases: glycan array binding signal (z-score within array); higher = stronger binding
# Conditions in all cases: glycan notation: IUPAC condensed, linker removed
# [1] = target: Glc(a1-6)Glc(a1-6)Glc
# In short: (§1)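 Glycan array data were curated from 3228 arrays in the Consortium for Functional Glycomics database and kept only where the protein sequence was available. Glycan names were converted to IUPAC-condensed notation, and columns mapping to the same glycan were averaged. The binding signal is a within-array Z-score, averaged across arrays of the same protein sequence at different concentrations or buffers and across linkers. Negative Z-scores can be read as non-binding.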
# [2] = target: Glc(b1-4)Glc
# In short: as §1
# [3] = target: Glc(b1-6)Glc
# In short: as §1
# [4] = target: GlcA(b1-3)Gal
# In short: as §1
# [5] = target: GlcA(b1-3)GlcNAc
# In short: as §1
# [6] = target: GlcA(b1-6)Gal
# In short: as §1
# [7] = target: GlcNAc(a1-3)Gal(b1-4)GlcNAc
# In short: as §1
# [8] = target: GlcNAc(a1-4)Gal(b1-3)GlcNAc
# In short: as §1
# [9] = target: GlcNAc(a1-4)Gal(b1-4)GalNAc
# In short: as §1
# [10] = target: GlcNAc(a1-4)Gal(b1-4)GlcNAc
# In short: as §1
# [11] = target: GlcNAc(a1-4)Gal(b1-4)GlcNAc(b1-3)Gal(b1-4)Glc
# In short: as §1
# [12] = target: GlcNAc(a1-4)Gal(b1-4)GlcNAc(b1-3)Gal(b1-4)GlcNAc
# In short: as §1
# [13] = target: GlcNAc(a1-4)Gal(b1-4)GlcNAc(b1-3)Gal(b1-4)GlcNAc(b1-3)Gal(b1-4)GlcNAc
# In short: as §1
# [14] = target: GlcNAc(a1-4)Gal(b1-4)GlcNAc(b1-3)Gal(b1-4)[Fuc(a1-3)]GlcNAc(b1-3)Gal(b1-4)[Fuc(a1-3)]GlcNAc
# In short: as §1
# [15] = target: GlcNAc(a1-6)Gal(b1-4)GlcNAc
# In short: as §1
# [16] = target: GlcNAc(b1-2)Gal(b1-3)GalNAc
# In short: as §1
# [17] = target: GlcNAc(b1-2)Man(a1-3)[GlcNAc(b1-2)Man(a1-6)]Man(b1-4)GlcNAc(b1-4)GlcNAc
# In short: as §1
# [18] = target: GlcNAc(b1-2)Man(a1-3)[GlcNAc(b1-2)Man(a1-6)]Man(b1-4)GlcNAc(b1-4)[Fuc(a1-6)]GlcNAc
# In short: as §1
# [19] = target: GlcNAc(b1-3)Gal
# In short: as §1
# [20] = target: GlcNAc(b1-3)Gal(b1-3)GalNAc
# In short: as §1
# [21] = target: GlcNAc(b1-3)Gal(b1-4)Glc
# In short: as §1
# [22] = target: GlcNAc(b1-3)Gal(b1-4)GlcNAc
# In short: as §1
# [23] = target: GlcNAc(b1-3)Gal(b1-4)GlcNAc(b1-3)Gal(b1-4)GlcNAc
# In short: as §1
# [24] = target: GlcNAc(b1-3)GalNAc
# In short: as §1
# [25] = target: GlcNAc(b1-3)Man
# In short: as §1
# [26] = target: GlcNAc(b1-3)[GlcNAc(b1-4)][GlcNAc(b1-6)]GlcNAc
# In short: as §1
# [27] = target: GlcNAc(b1-3)[GlcNAc(b1-6)]Gal(b1-4)GlcNAc
# In short: as §1
# [28] = target: GlcNAc(b1-3)[GlcNAc(b1-6)]GalNAc
# In short: as §1
# [29] = target: GlcNAc(b1-4)Gal(b1-4)GlcNAc
# In short: as §1
# [30] = target: GlcNAc(b1-4)GlcNAc
# In short: as §1
# [31] = target: GlcNAc(b1-4)GlcNAc(b1-4)GlcNAc
# In short: as §1
# [32] = target: GlcNAc(b1-4)GlcNAc(b1-4)GlcNAc(b1-4)GlcNAc(b1-4)GlcNAc
# In short: as §1
# [33] = target: GlcNAc(b1-4)GlcNAc(b1-4)GlcNAc(b1-4)GlcNAc(b1-4)GlcNAc(b1-4)GlcNAc
# In short: as §1
# [34] = target: GlcNAc(b1-4)[GlcNAc(b1-6)]GalNAc
# In short: as §1
# [35] = target: GlcNAc(b1-6)Gal(b1-4)GlcNAc
# In short: as §1
# [36] = target: GlcNAc(b1-6)GalNAc
# In short: as §1
# [37] = target: GlcNAc3Prop(b1-4)GlcNAc
# In short: as §1
# [38] = target: GlcNAc6S(b1-3)Gal(b1-4)GlcNAc
# In short: as §1
# [39] = target: Kdn(a2-3)Gal(b1-3)GalNAc
# In short: as §1
# [40] = target: Kdn(a2-3)Gal(b1-3)GlcNAc
# In short: as §1
# [41] = target: Kdn(a2-3)Gal(b1-4)Glc
# In short: as §1
# [42] = target: Kdn(a2-3)Gal(b1-4)GlcNAc
# In short: as §1
# [43] = target: Kdn(a2-3)Gal(b1-4)[Fuc(a1-3)]GlcNAc
# In short: as §1
# [44] = target: Kdn(a2-6)Gal(b1-4)GlcNAc
# In short: as §1
# [45] = target: Man(a1-2)Man(a1-2)Man(a1-3)Man
# In short: as §1
# [46] = target: Man(a1-2)Man(a1-2)Man(a1-6)[Man(a1-3)]Man
# In short: as §1
# [47] = target: Man(a1-2)Man(a1-3)Man
# In short: as §1
# [48] = target: Man(a1-2)Man(a1-3)[Man(a1-2)Man(a1-6)]Man
# In short: as §1
# [49] = target: Man(a1-2)Man(a1-3)[Man(a1-2)Man(a1-6)]Man(a1-6)[Man(a1-2)Man(a1-2)Man(a1-3)]Man
# In short: as §1
# [50] = target: Man(a1-2)Man(a1-3)[Man(a1-2)Man(a1-6)]Man(a1-6)[Man(a1-2)Man(a1-2)Man(a1-3)]Man(b1-4)GlcNAc(b1-4)GlcNAc
# In short: as §1
# [51] = target: Man(a1-2)Man(a1-3)[Man(a1-6)]Man(a1-6)[Man(a1-2)Man(a1-3)]Man(b1-4)GlcNAc(b1-4)GlcNAc
# In short: as §1
# [52] = target: Man(a1-2)Man(a1-6)[Man(a1-3)]Man(a1-6)[Man(a1-2)Man(a1-2)Man(a1-3)]Man
# In short: as §1
# [53] = target: Man(a1-2)Man(a1-6)[Man(a1-3)]Man(a1-6)[Man(a1-2)Man(a1-2)Man(a1-3)]Man(b1-4)GlcNAc(b1-4)GlcNAc
# In short: as §1
# [54] = target: Man(a1-3)[Man(a1-6)]Man
# In short: as §1
# [55] = target: Man(a1-3)[Man(a1-6)]Man(a1-6)[Man(a1-2)Man(a1-3)]Man(b1-4)GlcNAc(b1-4)GlcNAc
# In short: as §1
# [56] = target: Man(a1-3)[Man(a1-6)]Man(a1-6)[Man(a1-3)]Man
# In short: as §1
# [57] = target: Man(a1-3)[Man(a1-6)]Man(a1-6)[Man(a1-3)]Man(b1-4)GlcNAc(b1-4)GlcNAc
# In short: as §1
# [58] = target: Man(a1-3)[Man(a1-6)]Man(b1-4)GlcNAc(b1-4)GlcNAc
# In short: as §1
# [59] = target: Man(a1-6)Man
# In short: as §1
# [60] = target: Man(b1-4)GlcNAc
# In short: as §1
binder,measurement,setting,value
B1,glycan array binding signal (z-score),[1],-0.431
same,glycan array binding signal (z-score),[2],-0.28
same,glycan array binding signal (z-score),[3],-0.322
same,glycan array binding signal (z-score),[4],-0.305
same,glycan array binding signal (z-score),[5],-0.308
same,glycan array binding signal (z-score),[6],-0.148
same,glycan array binding signal (z-score),[7],-0.264
same,glycan array binding signal (z-score),[8],-0.133
same,glycan array binding signal (z-score),[9],0.754
same,glycan array binding signal (z-score),[10],-0.307
same,glycan array binding signal (z-score),[11],-0.275
same,glycan array binding signal (z-score),[12],-0.154
same,glycan array binding signal (z-score),[13],-0.167
same,glycan array binding signal (z-score),[14],2.61
same,glycan array binding signal (z-score),[15],-0.181
same,glycan array binding signal (z-score),[16],-0.349
same,glycan array binding signal (z-score),[17],-0.236
same,glycan array binding signal (z-score),[18],-0.248
same,glycan array binding signal (z-score),[19],-0.372
same,glycan array binding signal (z-score),[20],0.03
same,glycan array binding signal (z-score),[21],-0.232
same,glycan array binding signal (z-score),[22],-0.32
same,glycan array binding signal (z-score),[23],-0.302
same,glycan array binding signal (z-score),[24],-0.076
same,glycan array binding signal (z-score),[25],-0.225
same,glycan array binding signal (z-score),[26],-0.236
same,glycan array binding signal (z-score),[27],-0.354
same,glycan array binding signal (z-score),[28],-0.27
same,glycan array binding signal (z-score),[29],-0.238
same,glycan array binding signal (z-score),[30],-0.282
same,glycan array binding signal (z-score),[31],-0.307
same,glycan array binding signal (z-score),[32],-0.36
same,glycan array binding signal (z-score),[33],-0.306
same,glycan array binding signal (z-score),[34],-0.203
same,glycan array binding signal (z-score),[35],-0.321
same,glycan array binding signal (z-score),[36],-0.324
same,glycan array binding signal (z-score),[37],-0.299
same,glycan array binding signal (z-score),[38],-0.32
same,glycan array binding signal (z-score),[39],-0.237
same,glycan array binding signal (z-score),[40],-0.243
same,glycan array binding signal (z-score),[41],-0.151
same,glycan array binding signal (z-score),[42],-0.231
same,glycan array binding signal (z-score),[43],1.12
same,glycan array binding signal (z-score),[44],-0.209
same,glycan array binding signal (z-score),[45],-0.155
same,glycan array binding signal (z-score),[46],-0.237
same,glycan array binding signal (z-score),[47],-0.171
same,glycan array binding signal (z-score),[48],-0.239
same,glycan array binding signal (z-score),[49],-0.339
same,glycan array binding signal (z-score),[50],-0.203
same,glycan array binding signal (z-score),[51],-0.217
same,glycan array binding signal (z-score),[52],-0.303
same,glycan array binding signal (z-score),[53],-0.184
same,glycan array binding signal (z-score),[54],-0.363
same,glycan array binding signal (z-score),[55],-0.319
same,glycan array binding signal (z-score),[56],-0.335
same,glycan array binding signal (z-score),[57],-0.25
same,glycan array binding signal (z-score),[58],-0.24
same,glycan array binding signal (z-score),[59],-0.238
same,glycan array binding signal (z-score),[60],-0.304
